Results published in PubChem BioAssay AID1347430 (National Center for Advancing Translational Sciences (NCATS), 2020).
Out of some 91,000 compounds screened, about 130 (0.14%) were called active. This list was built around the results that the source calls inconclusive (neither active nor inactive); the mix of calls is not that of the screen. The call rests on the fitted dose curve; in most records, active means well fitted inhibition curve with a large enough effect; inconclusive means small, poorly fitted or top-dose-only effect; inactive means flat fitted curve, though single readings scatter. Where the call is inconclusive, the potency comes from a doubtful curve fit.

System: Uracil-DNA glycosylase
Test: Primary qHTS assay for inhibitors of Activation Induced Cytidine Deaminase (AID): UDG Counterscreen signal; further: nearly all actives have a fitted effect of over 65% in size
Details: FRET deamination/UDG coupled assay, UDG read, 4 h; activity change, negative = inhibition: at 115 µM (top of the series)
On the % scale 0 is the no-effect control and ±100 the full control effect; potency means the concentration at half of the fitted maximal effect; tags describe the fitted curve by direction and shape.

Row | SMILES | Potency | activity change, negative = inhibition
1 | CCOc1ccc(CNC(=O)c2cccc(NC(=O)N3CCSc4ncccc43)c2)cc1OC | inconclusive: 79.4 µM [inhibitor, single point] | 
2 | Cc1ccc(C)c(N2CCN(C(=O)c3cn(CC(C)C)c(=O)c4c3c3ccccc3n4C)CC2)c1 | inconclusive: 39.8 µM [inhibitor, partial curve, poor fit] | 
3 | Cc1ccc(NC(=O)C2(c3cccs3)CCOCC2)cc1Cl | inconclusive: 89.1 µM [inhibitor, partial curve, poor fit] | 
4 | COc1ccccc1OC(C)C(=O)Nc1cccc(-c2nc3ccccc3s2)c1 (centres undefined) | inconclusive: 56.2 µM [inhibitor, partial curve, poor fit] | 
5 | Cc1ccccc1/[N+]([O-])=C/c1ccccc1 | inconclusive: 8.91 µM [inhibitor, full curve, poor fit] | 
6 | O=C1C(O)=C(c2ccccc2)C(c2ccccc2F)N1c1ccc(F)cc1 (centres undefined) |  | inactive: 3.84%
7 | COc1ccc(-c2cc(-c3ccccc3)c(C#N)c(SCC(O)CS(=O)(=O)Cc3ccc(Cl)cc3)n2)cc1 (centres undefined) | inconclusive: 89.1 µM [inhibitor, partial curve, poor fit] | 
8 | CCCN1CCN(c2ncnc3sc(C(=O)Nc4ccc(C(C)C)cc4)c(C)c23)CC1 | inconclusive: 70.8 µM [inhibitor, single point] | 
9 | COc1ccc(C(=O)c2c(N)c(-c3nc(-c4ccc5c(c4)OCO5)cs3)c3ccccn23)cc1 | inconclusive: 100 µM [inhibitor, single point] | 
10 | Cc1ccc(C(=O)Nc2c(NCc3ccccc3)c3ccccc3oc2=O)cc1 |  | inactive: 3.99%
11 | CCCCCCn1nnc2sc(-c3ccccc3)cc2c1=O | inconclusive: 89.1 µM [inhibitor, single point] | 
12 | Cc1[nH]c2ccccc2c1C(=O)C(C)Sc1nnnn1C1CCCC1 (centres undefined) |  | inactive: -0.262%
13 | CCn1nc(C(=O)N2CCNC(=O)C2)c2ccccc2c1=O |  | inactive: 4.17%
14 | CCCCCCc1ccc(Nc2ccccc2)cc1O | inconclusive: 39.8 µM [inhibitor, partial curve, poor fit] | 
15 | COc1ccc(C(=O)c2c(N)c(C(=O)Nc3ccccc3Cl)c3ccccn23)cc1 | inconclusive: 79.4 µM [inhibitor, partial curve, poor fit] | 
16 | COc1ccc(C(=O)/C=C/c2cn(CC(O)CN3CCCCCC3)c3ccccc23)cc1OC (centres undefined) | inconclusive: 89.1 µM [inhibitor, partial curve, poor fit] | 
17 | Cc1ccc(-c2noc(-c3ccc(N4CCOCC4)c([N+](=O)[O-])c3)n2)cc1 | inconclusive: 89.1 µM [inhibitor, single point] | 
18 | N=C(N)N1CCN(c2ccccc2)CC1 |  | inactive: 5.03%
19 | Cc1nnc(SCC(=O)NCCc2ccco2)c2nn(-c3ccccc3)c(C)c12 | inconclusive: 89.1 µM [inhibitor, single point] | 
20 | CCc1cccc(NC(=O)c2cnc(N3CCOCC3)c3ccccc23)c1 | inconclusive: 89.1 µM [inhibitor, single point] | 
21 | Cc1c(C(=O)N2CCCC2)oc2c1-c1nn(CC(=O)NCc3ccc(OC(C)C)cc3)cc1CC2 | inconclusive: 50.1 µM [inhibitor, partial curve, poor fit] | 
22 | O=C(COc1c(Cl)cccc1Cl)Nc1cccc2cccnc12 |  | inactive: 8.42%
23 | CC1CCCCN1C(=O)CSc1nc(-c2ccccc2)no1 (centres undefined) | inconclusive: 79.4 µM [inhibitor, single point] | 

Row | SMILES | Potency | activity change, negative = inhibition
24 | O=C(NCc1ccccc1S(=O)(=O)N1CCOCC1)c1ccc(OC(F)F)cc1 |  | inactive: -1.65%
25 | COc1cc(OC)c(NC(=O)C2=C(C)C(=O)OC23CCN(C(C)=O)CC3)cc1Cl | inconclusive: 89.1 µM [inhibitor, single point] | 
26 | O=C(CSC1=NC2(CCCCC2)N=C1c1cccs1)NCc1ccccc1 | inconclusive: 89.1 µM [inhibitor, single point] | 
27 | COc1ccc(-c2nc(CSCC(=O)N3CCN(c4cc(Cl)ccc4C)CC3)c(C)o2)cc1 | inconclusive: 39.8 µM [inhibitor, partial curve, poor fit] | 
28 | COc1ccc(-c2nn3c(=O)cc(CN4CCN(C(=O)/C=C/c5ccccc5)CC4)nc3s2)cc1 | inconclusive: 89.1 µM [inhibitor, single point] | 
29 | CC(=O)c1ccc(N2CCN(S(=O)(=O)c3ccc(-c4coc(C)n4)cc3)CC2)cc1 |  | inactive: -7.34%
30 | N#Cc1ccc(NN)c([N+](=O)[O-])c1 | inconclusive: 56.2 µM [inhibitor, partial curve, poor fit] | 
31 | O=C(C1CC1)N(Cc1ccc2c(c1)CN(S(=O)(=O)c1ccccc1F)CCO2)c1ccccc1 |  | inactive: 0%
32 | Cc1nc2ccccc2c(=O)n1-c1ccc(NC(=O)c2ccccc2[N+](=O)[O-])cc1 |  | inactive: 21.8%
33 | CCCCNc1nc2c(c(=O)n(Cc3cccc(Br)c3)c(=O)n2C)n1C | inconclusive: 89.1 µM [inhibitor, single point] | 
34 | NC(=O)c1ccc(CN(C(=O)Cc2cccs2)C2CC2)cc1 |  | inactive: -5.15%
35 | CNS(=O)(=O)c1cn(CC(=O)Nc2ccc(OC)cc2OC)cc1S(=O)(=O)NC | inconclusive: 89.1 µM [inhibitor, single point] | 
36 | CCOc1ccc(Nc2oc(/C=C/c3cccc(OC)c3)nc2C#N)cc1 | inconclusive: 79.4 µM [inhibitor, partial curve, poor fit] | 
37 | CCCCOc1ccc(CNC(=O)c2ccc3c(c2)N(C)C(=O)C2CCCCN32)cc1 (centres undefined) | inconclusive: 79.4 µM [inhibitor, partial curve, poor fit] | 
38 | Cc1ccccc1CSc1ccc(-c2cccs2)nn1 | inconclusive: 79.4 µM [inhibitor, partial curve, poor fit] | 
39 | COc1ccc2[nH]c(C)c(C(=O)CN3CCC(C)CC3)c2c1 |  | inactive: 0%
40 | CCOc1ccc(NC(=O)/C=C/c2cccc3ccccc23)cc1 |  | inactive: -1.79%
41 | c1cnc(N2CCN(c3ncc4c(n3)CCNC4)CC2)nc1 | inconclusive: 35.5 µM [inhibitor, single point] | 
42 | CCOC(=O)c1ccc(Oc2c(C)oc3cc(OCC)ccc3c2=O)cc1 |  | inactive: 4.63%
43 | NO | active: 28.2 µM | 
44 | CCOc1ccccc1NC(=O)c1c(NC(=O)Cc2ccc(OC)cc2)sc2c1CCC2 | inconclusive: 56.2 µM [inhibitor, partial curve, poor fit] | 
45 | Cc1ccc(OCC(=O)Nc2cccc(C(=O)OCc3cc(=O)n4c(C)csc4n3)c2)cc1 | inconclusive: 31.6 µM [inhibitor, partial curve] | 
46 | Cc1cccc(-c2noc(CN(C)C(=O)COc3ccc4ccccc4c3Br)n2)c1 | inconclusive: 89.1 µM [inhibitor, single point] | 

Row | SMILES | Potency | activity change, negative = inhibition
47 | COc1ccc(-c2ccc(=O)n(CC(=O)Nc3ccc(OC)c(OC)c3)n2)cc1 | inconclusive: 89.1 µM [inhibitor, single point] | 
48 | CCN(CC)S(=O)(=O)c1ccc([N+](=O)[O-])cc1 |  | inactive: -6.65%
49 | CC(C)(CNC(=O)C1CC1)CNC(=O)C1CC1 |  | inactive: 4.75%
50 | CC(=O)C(Sc1ccc([N+](=O)[O-])cc1)C(C)=O |  | inactive: 0.265%
51 | N#Cc1c(N)n[nH]c1CCCNC(=O)c1ccccc1Nc1cccc(C(F)(F)F)c1 |  | inactive: 0.142%
52 | O=c1[nH]c(SCc2ccc([N+](=O)[O-])cc2)nc2c1CCCC2 | inconclusive: 11.2 µM [inhibitor, partial curve, poor fit] | 
53 | Cc1ccc2nc(COc3cccc(NC(=O)COc4ccc(F)cc4)c3)cc(=O)n2c1 | inconclusive: 89.1 µM [inhibitor, single point] | 
54 | CC(C)(C)c1ccc(C(=S)NCCC2=CCCCC2)cc1 |  | inactive: -3.99%
55 | O=C(NCc1ccc2c(c1)CCN2C(=O)c1ccncc1)c1ccccc1F | inconclusive: 100 µM [inhibitor, single point] | 
56 | O=C(CN1c2ccccc2S(=O)(=O)c2ccccc21)Nc1cccc(C(F)(F)F)c1 | inconclusive: 89.1 µM [inhibitor, partial curve, poor fit] | 
57 | CCN1CCN(c2ncnc3c2cnn3-c2cc(Cl)ccc2C)CC1 |  | inactive: -14.6%
58 | C/C(=C/C(=O)C(F)(F)F)N1CCN(c2ccccc2F)CC1 |  | inactive: 7.04%
59 | Clc1cccc(-n2cc(-c3ccccc3)c3c(NC4CCCC4)ncnc32)c1 |  | inactive: -1.22% [at 57.5 µM]
60 | Cc1ccc(C2N3CC4(C)CN2CC(C)(C3)C4=O)cc1 (centres undefined) |  | inactive: -8.72%
61 | CCCCCCCc1ccc(-c2ccc(OC)cc2)nc1 |  | inactive: 9.76%
62 | Cc1ccc(-c2nc(CN3CCCC3c3nnc4ccccn34)co2)c(C)c1 (centres undefined) |  | inactive: 7.9%
63 | Fc1ccccc1C(NCCc1ccc(Cl)cc1)c1nnc(-c2ccccc2)o1 (centres undefined) | inconclusive: 63.1 µM [inhibitor, partial curve, poor fit] | 
64 | COc1cc(NC(=O)Cn2c(-c3ccccc3)cc(C(C)=O)c2C)cc(OC)c1 | inconclusive: 89.1 µM [inhibitor, single point] | 
65 | Cc1ccc(-c2cnc(C3CC3)o2)cc1S(=O)(=O)Nc1cccc(C#N)c1 | inconclusive: 44.7 µM [inhibitor, single point] | 
66 | CC(=O)Oc1ccc(C2C(C#N)=C(N)OC3=C2C(=O)CC(C)(C)C3)cc1 (centres undefined) |  | inactive: -3.86%
67 | N#Cc1ccccc1Cn1c(SCC(=O)NCc2ccccc2)nc2ccccc21 | inconclusive: 89.1 µM [inhibitor, partial curve] | 
68 | CCOc1ccc(CCNC(=O)CSCc2nc(-c3cccc(C)c3)oc2C)cc1OCC | inconclusive: 79.4 µM [inhibitor, single point] | 
69 | CN(C)S(=O)(=O)c1ccc(C(=O)N(Cc2cccnc2)c2nc3c(F)cc(F)cc3s2)cc1 | inconclusive: 89.1 µM [inhibitor, single point] | 
